The assay concerns the target T1, C4.4a receptor (complete), on transfected A549 cells (UniProt O95274 31-326, limits assumed).
T1 sequence (looked up): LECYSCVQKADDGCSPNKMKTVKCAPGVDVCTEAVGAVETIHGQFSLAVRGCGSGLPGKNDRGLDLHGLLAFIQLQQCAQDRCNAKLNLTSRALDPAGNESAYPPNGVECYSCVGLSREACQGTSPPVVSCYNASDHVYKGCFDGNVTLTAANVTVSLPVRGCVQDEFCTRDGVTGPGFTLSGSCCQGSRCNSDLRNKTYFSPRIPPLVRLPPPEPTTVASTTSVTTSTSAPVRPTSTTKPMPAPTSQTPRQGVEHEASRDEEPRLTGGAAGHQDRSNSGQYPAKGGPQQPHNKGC
Kind of assay: cell-based or functional assay.

B1: ADC of Example 119 (anti-C4.4a B01-3) (antibody, human IgG1, lambda)
light: ESVLTQPPSVSGAPGQRVTISCTGSSSNIGAGYVVHWYQQLPGTAPKLLIYDNNKRPSGVPDRFSGSKSGTSASLAISGLRSEDEADYYCAAWDDRLNGPVFGGGTKLTVLGQPKAAPSVTLFPPSSEELQANKATLVCLISDFYPGAVTVAWKADSSPVKAGVETTTPSKQSNNKYAASSYLSLTPEQWKSHRSYSCQVTHEGSTVEKTVAPTECS
heavy: EVQLLESGGGLVQPGGSLRLSCAASGFTFSNAWMSWVRQAPGKGLEWVSYISSSGSTIYYADSVKGRFTISRDNSKNTLYLQMNSLRAEDTAVYYCAREGLWAFDYWGQGTLVTVSS[in this place human IgG1 constant region]
modifications: linker-toxophore on Cys (S)
For B1, the “IC50 [nM] A549: C4.4a” value came to 0.32 nM.

B2: ADC of Example 120 (anti-C4.4a B01-3) (antibody, human IgG1, lambda)
light: ESVLTQPPSVSGAPGQRVTISCTGSSSNIGAGYVVHWYQQLPGTAPKLLIYDNNKRPSGVPDRFSGSKSGTSASLAISGLRSEDEADYYCAAWDDRLNGPVFGGGTKLTVLGQPKAAPSVTLFPPSSEELQANKATLVCLISDFYPGAVTVAWKADSSPVKAGVETTTPSKQSNNKYAASSYLSLTPEQWKSHRSYSCQVTHEGSTVEKTVAPTECS
heavy: EVQLLESGGGLVQPGGSLRLSCAASGFTFSNAWMSWVRQAPGKGLEWVSYISSSGSTIYYADSVKGRFTISRDNSKNTLYLQMNSLRAEDTAVYYCAREGLWAFDYWGQGTLVTVSS[in this place human IgG1 constant region]
modifications: linker-toxophore on Lys (NH)
On to B2, for which the “IC50 [nM] A549: C4.4a” value turned out to be 0.07 nM.

For the origin of these results see patent publication US20130066055A1 (Bayer, published 2013).
